# Test results: PubChem BioAssay AID686978 (National Center for Advancing Translational Sciences (NCATS), 2013)
# Where “and” joins values, the source holds several entries; their conditions need not be identical. Identical values can stand only once. The campaign covered roughly 420,000 compounds. About 64,000 (15%) were called active. Inconclusive means that the source gave no clear call. Such entries were picked first, then a sample of the others. The call rests on the fitted dose curve; in most records, active means well fitted inhibition curve with a large enough effect; inconclusive means small, poorly fitted or top-dose-only effect; inactive means flat fitted curve, though single readings scatter. Potencies of inconclusive entries are doubtful fits and often do not repeat. Numbered stars: 1 amine (or outer) side, 2 acyl side, 3 side chain; on linkers, the order of the positions; unused ones are H or OH. Bridge positions count the residues as written; N and C are the ends. Square brackets hold non-standard residues; d marks the D form. Peptide text beside a SMILES is read from it. * marks the point of attachment. X11 = NC1=N[C@@H]([C@H](N[*:1])C(=O)[*:2])C[C@H](O)N1; ΔAla(Z-3-ureido) = NC(=O)N/C=C(\N)C(=O)O; β3hOrn = NCCC[C@H](N)CC(=O)*; Dap = NC[C@H](N)C(=O)O
# Experiment: qHTS for Inhibitors of human tyrosyl-DNA phosphodiesterase 1 (TDP1): qHTS in cells in absence of CPT; further: nearly all actives have a fitted effect of over 55% in size
# Details: DT40 Tdp1-/- hTDP1 cells, no CPT, ATP luminescence, 48 h; activity change, negative = growth inhibition: at 46.2 µM (top of the series)
# Method in brief: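 A cellular qHTS used chicken DT40 cells lacking endogenous Tdp1 but carrying stably transfected human TDP1. Compounds were applied without camptothecin, and cell growth kinetics were judged by ATP-dependent luminescence after ≥48 hr.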
# On the % scale 0 is the no-effect control and ±100 the full control effect; potency means the concentration at half of the fitted maximal effect; tags describe the fitted curve by direction and shape.
SMILES,Potency,"activity change, negative = growth inhibition"
CSCCC(c1nc2ccccc2[nH]1)n1c(=O)c(-c2cccnc2)nc2ccccc21 (stereo not drawn),inactive,–
Cc1c(CC(=O)N[C@@H](C)C(=O)O)c(=O)oc2cc3c(cc12)CCC(C)(C)O3,inactive,–
COc1ccccc1N1CCN(/N=C/c2cc(OC)c(O)c(OC)c2)CC1,inactive,–
COc1ccc(NC(=S)NC(=O)Cc2ccccc2)c(OC)c1,inactive,–
O=C(CSc1n[nH]c(-c2ccncc2)n1)Nc1ccccc1,inactive,–
N#C/C(=C\c1ccc(O)c(O)c1)C(=O)Nc1cccc2ncccc12,inactive,–
CC(=O)N1Cc2ccccc2CC1C(=O)O (stereo not drawn),"inconclusive: 0.461 µM [inhibitor, partial curve, poor fit]",–
COCc1ccc([C@@H]2C[C@H]3CN(Cc4cccc(Cl)c4)C(=O)[C@]34CCCN24)o1,"inconclusive: 25.9 µM [inhibitor, single point]",–
CC(/C=N/NC(=O)c1cccs1)=C\c1ccco1,inactive,–
CC(=O)Nc1ccc(-c2ccnc3c2CC(C)(C(=O)NCC2CC2)O3)cc1 (stereo not drawn),"inconclusive: 20.6 µM [inhibitor, single point]",–
Cc1onc(-c2ccccc2)c1-c1csc(N/N=C/c2ccccc2Cl)n1,"inconclusive: 25.9 µM [inhibitor, single point]",–
CCOc1cc(C=O)c(Br)cc1OC1CCCC1,"inconclusive: 15.8 µM [inhibitor, partial curve]",–
CCN(CC)C(=O)c1ccc(Nc2nnc(-c3ccc(C)c(S(=O)(=O)NC)c3)c3ccccc23)cc1,active: 20.6 µM,–
Cc1cc(Cn2ccnc2)c(C)c([N+](=O)[O-])c1Cn1ccnc1,"inconclusive: 29.1 µM [inhibitor, single point]",–
CCCNC(=O)N1C[C@H](O)COC[C@H]2O[C@@H](CC(=O)N[C@@H]3CCN(Cc4ccccc4)C3)CC[C@@H]21,inactive,–
COc1ccc2cnn(-c3ccccc3C)c(=O)c2c1OC,active: 7.31 µM,–
CC(C)Oc1ccc(Cc2cnc(=S)[nH]c2N)cc1,"inconclusive: 2.59 µM [inhibitor, partial curve]",–
Cc1cc(C(=O)Nc2sc3c(c2C#N)CCC(C(C)(C)C)C3)no1 (stereo not drawn),"inconclusive: 29.1 µM [inhibitor, single point]",–
COCCCNC(=O)c1cc(Sc2nnc(C)s2)nc2ccccc12,inactive,–
COc1ccc(OC)c(C2CC(=O)c3c([nH]c(C(=O)OC(C)C)c3C)C2)c1 (stereo not drawn),active: 0.82 µM,–
Cc1nc2scc(C)n2c(=O)c1S(=O)(=O)N1CCN(c2ccc(F)cc2)CC1,"inconclusive: 32.6 µM [inhibitor, single point]",–
CCCCN(Cc1cc2cc(C)ccc2[nH]c1=O)C(=O)c1ccccn1,"inconclusive: 18.4 µM [inhibitor, single point]",–
CCCN(C(=O)c1cc2c(=O)[nH]c3ccc(C)cc3c2s1)c1ccc(CC)cc1,inactive,–

SMILES,Potency,"activity change, negative = growth inhibition"
CCn1c(COc2ccc3c(c2)OCO3)nnc1SCC(=O)c1ccccc1,"inconclusive: 29.1 µM [inhibitor, single point]",–
CCOC(=O)c1c(-c2cccs2)csc1NC(=O)CN1CC(C)OC(C)C1 (stereo not drawn),active: 23.1 µM,–
COc1ccc(OC)c2c1sc(=NC(=O)C(C)C)n2C,"inconclusive: 29.1 µM [inhibitor, single point]",–
COc1ccc2c(c1)C(=O)CC(c1ccccc1)O2 (stereo not drawn),–,inconclusive: -31.4% [inhibitor]
CCOC(=O)C1CCCN(C(=O)c2nn(-c3ccc(C)cc3)c(=O)n(C)c2=O)C1 (stereo not drawn),inactive,–
CNS(=O)(=O)c1ccc(CNC[C@H]2O[C@@H](n3cnc4c(=O)[nH]c(N)nc43)[C@H](O)[C@@H]2O)cc1,inactive,–
Cc1noc(C)c1S(=O)(=O)N1CCCC(C(=O)N2CCc3ccccc3C2)C1 (stereo not drawn),"inconclusive: 29.1 µM [inhibitor, single point]",–
O=C1CSC(=S)N1c1ccc(Cl)c(Cl)c1,inactive,–
COc1ccccc1-c1cc(C(=O)N2CCN(c3ccccc3OC)CC2)no1,"inconclusive: 29.1 µM [inhibitor, single point]",–
COC(=O)c1sc(NC(=O)COc2c(C)cccc2C)nc1C,active: 11.6 µM,–
CCCCNS(=O)(=O)c1ccc(NC(=O)c2c(-c3ccccc3Cl)noc2C)cc1,"inconclusive: 23.1 µM [inhibitor, single point]",–
C/C(=N\NC(=O)c1ccccc1OCc1ccc(F)cc1)c1ccccn1,active: 5.17 µM,–
Cn1c(=O)oc2cc(S(=O)(=O)Nc3cccc(C(=O)O)c3)ccc21,inactive,–
CC(=O)C1=C(O)C(=O)N(c2nccs2)C1c1ccc(F)cc1 (stereo not drawn),"inconclusive: 8.2 µM [inhibitor, partial curve, poor fit]",–
CCCC(C)NC(=O)c1cccc(Oc2ccccc2)c1 (stereo not drawn),"inconclusive: 29.1 µM [inhibitor, single point]",–
CCOC(=O)N1CCN(C(=S)Nc2ccccc2C)CC1,inactive,–
COCCN1C(=O)N(c2cccc(C)c2)C(=O)C1CC(=O)Nc1ccc(OC)cc1 (stereo not drawn),inactive,–
Cc1ccc(/C=N/NC(=O)c2ccc(-c3ccccc3)cc2)o1,"inconclusive: 20.6 µM [inhibitor, single point]",–
C=CCn1c(Oc2cccc(C)c2)nc2c1c(=O)n(C)c(=O)n2C,"inconclusive: 32.6 µM [inhibitor, partial curve, poor fit]",–
O=C(CCNC(=O)c1ccc([N+](=O)[O-])cc1)Nc1ccc(F)c(F)c1F,"inconclusive: 10.3 µM [inhibitor, partial curve, poor fit]",–
CNc1ncc(C(=O)c2ccc(Cl)c(Cl)c2)s1,"inconclusive: 29.1 µM [inhibitor, single point]",–
CC(OC(=O)c1ccccc1Nc1ccc(SC(F)F)cc1)C(N)=O (stereo not drawn),"inconclusive: 20.6 µM [inhibitor, single point]",–
COCCn1c(=S)[nH]c2ncccc2c1=O,inactive,–

SMILES,Potency,"activity change, negative = growth inhibition"
COc1ccc(C2=C(C)C(=O)N(Cc3ccc(C(=O)NCc4cccc(C)c4)cc3)S2(=O)=O)cc1,"inconclusive: 11.6 µM [inhibitor, partial curve, poor fit]",–
Cc1ccc(C(C)C)cc1S(=O)(=O)NC1CC(C)(C)NC(C)(C)C1,–,inconclusive: -30.2% [inhibitor]
COc1cc([N+](=O)[O-])ccc1NC(=O)COC(=O)c1n[nH]c2ccccc12,"inconclusive: 25.9 µM [inhibitor, partial curve]",–
Cc1cc(O)cc(O)c1/C=N/NC(=O)c1ccc2c(c1)OCCO2,active: 6.51 µM,–
CCOC(=O)[C@@H]1[C@H]2COc3cc(OC)ccc3[C@@H]2N2C(=O)N(c3cccc(F)c3)C(=O)[C@@]12C,"inconclusive: 29.1 µM [inhibitor, partial curve, poor fit]",–
COc1ccc(-c2noc(COc3cc(C)ccc3C)n2)cc1OC,"inconclusive: 23.1 µM [inhibitor, single point]",–
COC(=O)c1ccc(CN2CCC(Oc3cccc(C(=O)N4CCCC4)c3)CC2)cc1,"inconclusive: 29.1 µM [inhibitor, single point]",–
NCCC[C@H](N)CC(=O)N[C@H]1CNC(=O)[C@H]([C@H]2C[C@H](O)NC(N)=N2)NC(=O)/C(=C/NC(N)=O)NC(=O)[C@H](CO)NC(=O)[C@H](CO)NC1=O (β3hOrn-[Dap]SS[ΔAla(Z-3-ureido)][X11]; lactam 1-C),inactive,–
COC(=O)C1=C(C)N(Cc2ccccc2)C(=O)N[C@H]1c1cccs1,"inconclusive: 18.4 µM [inhibitor, single point]",–
CC1=C(C(=O)OC2CCCC2)C(c2coc3ccccc3c2=O)C2=C(CCCC2=O)N1 (stereo not drawn),active: 0.411 µM,–
Cc1ccccc1C(=O)c1ccccc1C(=O)c1ccccc1,active: 16.4 µM,–
O=C(COc1ccc(F)cc1)Nc1ccc2nc(SCC(=O)N3CCOCC3)sc2c1,active: 11.6 µM,–
O=C(Nc1ccccc1N1CCCC1)c1cccc(S(=O)(=O)N2CCOCC2)c1,"inconclusive: 32.6 µM [inhibitor, single point]",–
CCCCCCc1ccc(N2C[C@H](Cc3ccccc3)[C@@H](CC(=O)Nc3ccccc3)C2=O)cc1,"inconclusive: 22.4 µM [inhibitor, single point] and inconclusive: 29.1 µM [inhibitor, single point]",–
CCCOc1cccc(C(=O)Nc2cccc3cccnc23)c1,"inconclusive: 20.6 µM [inhibitor, single point]",–
CCCC(C(=O)NCC1CCCO1)N(C(=O)CNS(=O)(=O)c1ccccc1)c1ccc(F)cc1 (stereo not drawn),"inconclusive: 29.1 µM [inhibitor, single point]",–
CCN(C(=O)c1nn(-c2ccc(OC)c(Cl)c2)c(=O)c2c1c1ccccc1n2C)c1cccc(C(F)(F)F)c1,"inconclusive: 23.1 µM [inhibitor, single point]",–
CC(C)Cn1c(/C=N/Nc2nc3ccccc3[nH]2)nc2ccccc21,active: 3.26 µM,–
COc1cc(NC(=O)CCn2c(=O)[nH]c3ccsc3c2=O)cc(OC)c1,"inconclusive: 9.2 µM [inhibitor, partial curve]",–
CC(=O)N(Cc1c(C)nn(-c2ccccc2)c1Cl)c1ccc(Cl)cc1,"inconclusive: 29.1 µM [inhibitor, single point]",–
O=C(CN1C(=O)COc2ccc(Cl)cc21)Nc1ccc(F)cc1,"inconclusive: 29.1 µM [inhibitor, single point]",–
CCOC(=O)C1CCCN(C2=C(NS(=O)(=O)c3ccc(Br)cc3)C(=O)c3ccccc3C2=O)C1 (stereo not drawn),active: 16.4 µM,–
